Reference: article PMC8358026
No constants are given. Whether binding was seen depends on the method and setting. In cells and extracts the contact can be indirect. Some entries that bind do so weakly or less than the wild type. For some assays here: Sequences can lack the tags named with a protein.

T1: ICAM1 with C-terminal Flag tag (ICAM1-Flag) or C-terminal Myc tag (ICAM1-Myc), wild type (human), P05362
T1 chain: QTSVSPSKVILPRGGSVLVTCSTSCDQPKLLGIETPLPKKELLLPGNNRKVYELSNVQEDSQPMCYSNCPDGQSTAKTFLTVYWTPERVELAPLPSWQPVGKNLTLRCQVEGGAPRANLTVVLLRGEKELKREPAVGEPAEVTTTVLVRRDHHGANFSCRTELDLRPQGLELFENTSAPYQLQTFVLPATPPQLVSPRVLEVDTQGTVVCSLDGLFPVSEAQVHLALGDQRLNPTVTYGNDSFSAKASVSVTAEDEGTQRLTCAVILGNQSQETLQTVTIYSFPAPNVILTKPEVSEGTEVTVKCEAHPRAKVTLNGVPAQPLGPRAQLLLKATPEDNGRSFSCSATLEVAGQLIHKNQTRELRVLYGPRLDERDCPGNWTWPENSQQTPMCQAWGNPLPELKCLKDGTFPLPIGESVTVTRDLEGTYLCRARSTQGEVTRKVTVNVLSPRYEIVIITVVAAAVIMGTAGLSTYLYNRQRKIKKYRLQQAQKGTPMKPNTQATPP


Key:
[1] = target: ICAM1 with C-terminal Flag tag (ICAM1-Flag) or C-terminal Myc tag (ICAM1-Myc), wild type (human) (UniProt P05362); assay: co-IP; ICAM1-Flag and ICAM1-Myc (or a Myc variant) transfected into two separate sets of HEK-293 cells; cells mixed and aggregated on poly-HEMA plates for 3-6 h, lysed in Pierce IP lysis buffer; anti-Flag magnetic beads overnight at 4 °C; immunoblots for Flag, Myc and ICAM1
[2] = target: T1, ICAM1 with C-terminal Flag tag …; assay: as above; conditions: remark: other sources report otherwise

| binding [1] | binding [2] | Molecule |
| --- | --- | --- |
| no binding |  | ICAM1-Myc variant M1 with truncated domain II (Δ112-211) (from UniProt P05362 28-532) |
| no binding |  | ICAM1-Myc variant M2 with truncated domain IV (Δ310-394) (from UniProt P05362 28-532) |
| no binding |  | ICAM1-Myc variant M3 with predicted homodimer-disruptive mutations R287D/N296E/Q297A in domain III (from UniProt P05362 28-532) |
| no binding |  | ICAM1-Myc variant M4 with combined mutations (M1-M2-M3) (from UniProt P05362 28-532) |
|  | binds | ICAM1 with C-terminal Flag tag (ICAM1-Flag) or C-terminal Myc tag (ICAM1-Myc), wild type, P05362 28-532 (protein) QTSVSPSKVILPRGGSVLVTCSTSCDQPKLLGIETPLPKKELLLPGNNRKVYELSNVQEDSQPMCYSNCPDGQSTAKTFLTVYWTPERVELAPLPSWQPVGKNLTLRCQVEGGAPRANLTVVLLRGEKELKREPAVGEPAEVTTTVLVRRDHHGANFSCRTELDLRPQGLELFENTSAPYQLQTFVLPATPPQLVSPRVLEVDTQGTVVCSLDGLFPVSEAQVHLALGDQRLNPTVTYGNDSFSAKASVSVTAEDEGTQRLTCAVILGNQSQETLQTVTIYSFPAPNVILTKPEVSEGTEVTVKCEAHPRAKVTLNGVPAQPLGPRAQLLLKATPEDNGRSFSCSATLEVAGQLIHKNQTRELRVLYGPRLDERDCPGNWTWPENSQQTPMCQAWGNPLPELKCLKDGTFPLPIGESVTVTRDLEGTYLCRARSTQGEVTRKVTVNVLSPRYEIVIITVVAAAVIMGTAGLSTYLYNRQRKIKKYRLQQAQKGTPMKPNTQATPP |
